# In all, about 81,000 sequences were measured (“one-hybrid fitness for binding parS DNA”: median about -0.17, highest 2% from about 0.51 on). Some of the results follow.
# B1: Caulobacter ParB omega fusion; a variant is named by its letters at X, in order, B8GW30 (parent)
# chain: MESVVVGEPGMSEGRRGLGRGLSALLGEVDAAPAQAPGEQLGGSREAPIEILQRNPDQPRRTFREEDLEDLSNSIREKGVLQPILVRPSPDTAGEYQIVAGERAWRAAQRAGLKTVPIMVRELDDLAVLEIGIIENVQRADLNVLEEALSYKVLMEKFERTQENIAQTIGKSXSHVANXMRLLXLPDEVQSYLVSGELTAXHARAIAAAADPVALAKQIIEGGLSVRETEALARKAPNLSAGKSKGGRPPRVKDTDTQALESDLSSVLGLDVSIDHRGSTGTLTITYATLEQLDDLCNRLTRGI
# Variants of: B1
# Experiment: one-hybrid fitness for binding parS DNA (scaled: cognate 1, non-cognate 0); higher = stronger binding
# Details: with parS DNA site
# In short: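 Pre- and post-selection plasmids were Illumina-sequenced, three replicate libraries were pooled, and any variant with under 10 reads was removed. The libraries were Caulobacter ParB with four specificity codons randomised, selected in E. coli USO through a HIS3 reporter whose site is 19 bp from the promoter. Cells grew 48 hours at 37°C on M9 without histidine, with 0.1 mM IPTG and 5 mM 3-AT. Fitness is the log change in variant-to-wild-type read ratio, rescaled against cognate and non-cognate.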
row,Variant,one-hybrid fitness for binding parS DNA
1,HTKC,≤ 0.2
2,CRQG,≤ 0.2
3,ITNW,≤ 0.2
4,TYTG,≤ 0.2
5,SQDR,≤ 0.2
6,FTEY,≤ 0.2
7,MGKN,≤ 0.2
8,LSIA,≤ 0.2
9,ANTT,≤ 0.2
10,LIGM,≤ 0.2
11,TRML,≤ 0.2
12,CHTC,≤ 0.2
13,CSKS,≤ 0.2
14,AIPD,≤ 0.2
15,VNEA,≤ 0.2
16,RMGN,0.453
17,NKYH,≤ 0.2
18,EVNS,≤ 0.2
19,CRCG,≤ 0.2
20,DTNK,≤ 0.2
21,MVQL,≤ 0.2
22,TKIS,≤ 0.2
23,RHKV,≤ 0.2
24,NNES,≤ 0.2

row,Variant,one-hybrid fitness for binding parS DNA
1,SNTC,≤ 0.2
2,YSRF,≤ 0.2
3,DHVG,≤ 0.2
4,PHVL,≤ 0.2
5,FLWS,≤ 0.2
6,SMRK,≤ 0.2
7,RVPW,≤ 0.2
8,RVFL,≤ 0.2
9,GLIC,≤ 0.2
10,ATKR,≤ 0.2
11,TYHP,≤ 0.2
12,PIEP,≤ 0.2
13,QTAI,≤ 0.2
14,SQLV,≤ 0.2
15,RWEC,0.556
16,YHPP,≤ 0.2
17,HRNL,≤ 0.2
18,RCVY,0.452
19,VRHH,≤ 0.2
20,RTIL,≤ 0.2
21,VDKR,≤ 0.2
22,GATA,≤ 0.2
23,DHVS,≤ 0.2
24,ADIK,≤ 0.2

row,Variant,one-hybrid fitness for binding parS DNA
1,VTWV,≤ 0.2
2,PLFC,≤ 0.2
3,QETR,≤ 0.2
4,MTYG,≤ 0.2
5,RQMS,0.998
6,RQVN,0.316
7,YEHN,≤ 0.2
8,PCAS,≤ 0.2
9,GNTG,≤ 0.2
10,EKCM,≤ 0.2
11,SQYR,≤ 0.2
12,GPMS,≤ 0.2
13,VQCT,≤ 0.2
14,CIKW,≤ 0.2
15,RLRE,≤ 0.2
16,PLPR,≤ 0.2
17,QITS,≤ 0.2
18,DRRN,≤ 0.2
19,MLGM,≤ 0.2
20,ERTL,≤ 0.2
21,YVDW,≤ 0.2
22,DGSM,≤ 0.2
23,EQPG,≤ 0.2
24,SGYS,≤ 0.2

row,Variant,one-hybrid fitness for binding parS DNA
1,EYQC,≤ 0.2
2,GFGV,≤ 0.2
3,RHLK,≤ 0.2
4,QFLC,≤ 0.2
5,DAHH,≤ 0.2
6,IRFR,≤ 0.2
7,AWPT,≤ 0.2
8,MHMT,≤ 0.2
9,RFIV,≤ 0.2
10,AGTG,≤ 0.2
11,CPHG,≤ 0.2
12,STKE,≤ 0.2
13,SSTG,≤ 0.2
14,DEHT,≤ 0.2
15,AWHM,0.283
16,ATCS,≤ 0.2
17,LCMS,≤ 0.2
18,EWTG,≤ 0.2
19,QKPE,≤ 0.2
20,GGQS,≤ 0.2
21,QCTR,≤ 0.2
22,DCNR,≤ 0.2
23,TGHN,≤ 0.2
24,HQRV,≤ 0.2

row,Variant,one-hybrid fitness for binding parS DNA
1,LTNV,≤ 0.2
2,NRRR,≤ 0.2
3,SWRS,≤ 0.2
4,QCPN,≤ 0.2
5,PIHR,≤ 0.2
6,PDNS,≤ 0.2
7,CWQL,≤ 0.2
8,NRIV,≤ 0.2
9,SAKV,≤ 0.2
10,GFDS,≤ 0.2
11,QHRR,≤ 0.2
12,AYND,≤ 0.2
13,YVLT,≤ 0.2
14,LVLH,≤ 0.2
15,EKSG,≤ 0.2
16,SCQR,≤ 0.2
17,LMVP,≤ 0.2
18,QHDC,≤ 0.2
19,KKKS,≤ 0.2
20,ITMT,≤ 0.2
21,EWDG,≤ 0.2
22,EAVM,≤ 0.2
23,YTGF,≤ 0.2
24,QKTY,≤ 0.2

row,Variant,one-hybrid fitness for binding parS DNA
1,FRQT,≤ 0.2
2,VGKI,≤ 0.2
3,SSAK,≤ 0.2
4,IKWW,0.205
5,WIHG,≤ 0.2
6,RMWS,1.05
7,TCYG,≤ 0.2
8,AWRM,≤ 0.2
9,LMRR,≤ 0.2
10,SKYP,≤ 0.2
11,RFLI,≤ 0.2
12,TWAR,≤ 0.2
13,MWVG,≤ 0.2
14,QIHI,≤ 0.2
15,LFVT,≤ 0.2
16,GLNV,≤ 0.2
17,SYNV,≤ 0.2
18,KRHT,≤ 0.2
19,ESRG,≤ 0.2
20,QLSH,≤ 0.2
21,PGSK,≤ 0.2
22,RCSM,0.327
23,VCRV,≤ 0.2
24,GRKR,≤ 0.2

row,Variant,one-hybrid fitness for binding parS DNA
1,CCTE,≤ 0.2
2,QSPH,≤ 0.2
3,YNVS,≤ 0.2
4,RLYC,1.01
5,VMEL,≤ 0.2
6,CRRY,≤ 0.2
7,RMQH,0.313
8,WFGS,≤ 0.2
9,SASQ,≤ 0.2
10,YRHV,≤ 0.2
11,EEHS,≤ 0.2
12,YLTR,≤ 0.2
13,AEFS,≤ 0.2
14,RQSH,≤ 0.2
15,HYLE,≤ 0.2
16,SACV,≤ 0.2
17,TNMG,≤ 0.2
18,GGNC,≤ 0.2
19,VEGC,≤ 0.2
20,TALL,≤ 0.2
21,CSNR,≤ 0.2
22,DGDR,≤ 0.2
23,CTTF,≤ 0.2
24,GDFY,≤ 0.2

row,Variant,one-hybrid fitness for binding parS DNA
1,EKPS,≤ 0.2
2,PHNN,≤ 0.2
3,CTHF,≤ 0.2
4,GECC,≤ 0.2
5,LHNK,≤ 0.2
6,PQPF,≤ 0.2
7,EQGT,≤ 0.2
8,YSSC,≤ 0.2
9,IQHS,≤ 0.2
10,VHQM,≤ 0.2
11,HNLT,≤ 0.2
12,DHCS,≤ 0.2
13,RYHG,1
14,RWER,≤ 0.2
15,TWTS,≤ 0.2
16,HIRS,≤ 0.2
17,LMPP,≤ 0.2
18,RANA,0.595
19,VPGY,≤ 0.2
20,RGTM,≤ 0.2
21,DPHI,≤ 0.2
22,APHW,≤ 0.2
23,KEVT,≤ 0.2
24,VPCF,≤ 0.2

row,Variant,one-hybrid fitness for binding parS DNA
1,DKRG,≤ 0.2
2,SPDV,≤ 0.2
3,LQDC,≤ 0.2
4,YVVT,≤ 0.2
5,VSNT,≤ 0.2
6,EKSC,≤ 0.2
7,TQWI,≤ 0.2
8,PPNL,≤ 0.2
9,EDTR,≤ 0.2
10,RVFE,≤ 0.2
11,TLYI,≤ 0.2
12,TCPV,≤ 0.2
13,NTVM,≤ 0.2
14,TMRS,≤ 0.2
15,TIFP,≤ 0.2
16,RHRR,≤ 0.2
17,QTEN,≤ 0.2
18,PPIV,≤ 0.2
19,VSQV,≤ 0.2
20,VLKA,≤ 0.2
21,TTQC,≤ 0.2
22,TTLG,≤ 0.2
23,KPRR,≤ 0.2
24,SKER,≤ 0.2

row,Variant,one-hybrid fitness for binding parS DNA
1,FSRG,≤ 0.2
2,PCPN,≤ 0.2
3,STDY,≤ 0.2
4,QLGV,≤ 0.2
5,VMSR,≤ 0.2
6,RHWY,0.317
7,VRQY,≤ 0.2
8,FDNL,≤ 0.2
9,VQCY,≤ 0.2
10,PRPN,≤ 0.2
11,VMCN,≤ 0.2
12,SPPV,≤ 0.2
13,AYIL,≤ 0.2
14,PVAM,≤ 0.2
15,QCVS,≤ 0.2
16,RELM,≤ 0.2
17,RFSF,0.26
18,HRHW,≤ 0.2
19,FKYE,≤ 0.2
20,KVVS,≤ 0.2
21,DSVT,≤ 0.2
22,CVPC,≤ 0.2
23,VVIE,≤ 0.2
24,WGDG,≤ 0.2

row,Variant,one-hybrid fitness for binding parS DNA
1,QIPL,≤ 0.2
2,IMTM,≤ 0.2
3,RHKQ,≤ 0.2
4,DGCG,≤ 0.2
5,YRYS,0.329
6,FMNI,≤ 0.2
7,QGMH,≤ 0.2
8,QCDY,≤ 0.2
9,FMTW,≤ 0.2
10,IANG,≤ 0.2
11,LHHD,≤ 0.2
12,CMAY,≤ 0.2
13,SIND,≤ 0.2
14,CYLV,≤ 0.2
15,PCSW,≤ 0.2
16,NNLV,≤ 0.2
17,AVRE,≤ 0.2
18,WRQG,≤ 0.2
19,TEMT,≤ 0.2
20,PPVD,≤ 0.2
21,AMPG,≤ 0.2
22,NPVC,≤ 0.2
23,KWPT,≤ 0.2
24,KLKG,≤ 0.2

row,Variant,one-hybrid fitness for binding parS DNA
1,EHTR,≤ 0.2
2,APKM,≤ 0.2
3,RRPQ,≤ 0.2
4,VRRM,≤ 0.2
5,PDIC,≤ 0.2
6,ESCF,≤ 0.2
7,QSPF,≤ 0.2
8,AHRF,≤ 0.2
9,WLCF,≤ 0.2
10,CLCR,≤ 0.2
11,ALRV,≤ 0.2
12,QISC,≤ 0.2
13,ELCS,≤ 0.2
14,KNMG,≤ 0.2
15,QKQV,≤ 0.2
16,IVNS,≤ 0.2
17,DVSN,≤ 0.2
18,TASN,≤ 0.2
19,WLNG,≤ 0.2
20,RPCF,≤ 0.2
21,WGLG,≤ 0.2
22,PHKY,≤ 0.2
23,QWAG,≤ 0.2
24,ESST,≤ 0.2

row,Variant,one-hybrid fitness for binding parS DNA
1,NSPP,≤ 0.2
2,TCQS,≤ 0.2
3,CYTY,≤ 0.2
4,NVMC,≤ 0.2
5,GQRG,≤ 0.2
6,VGNL,≤ 0.2
7,WLDE,≤ 0.2
8,PQKA,≤ 0.2
9,ASPV,≤ 0.2
10,LPWL,≤ 0.2
11,EAAL,≤ 0.2
12,ATHI,≤ 0.2
13,CDLG,≤ 0.2
14,SRFF,≤ 0.2
15,QWPF,≤ 0.2
16,LKTN,≤ 0.2
17,RCSW,0.263
18,GDPL,≤ 0.2
